The supplement of paper PMC11417369
± gives the standard deviation of the averaged measurements. The list shows a part of the results.

These sequences were tested on PfAP2-LT AP2 domain (GST-tagged) (assay: gcPBM binding intensity (ln(normalized median fluorescence intensity)); higher = stronger DNA binding).
Summary of the method: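 An Agilent 4 × 180k array of primer-extended double-stranded 36-bp intergenic genomic probes, with negative controls, was incubated for 1 h with GST-tagged P. falciparum DNA-binding domains expressed in E. coli. Alexa488 anti-GST antibody detected bound protein, scanned at 488 nm. Binding intensity is the highest Masliner-normalised natural-log median intensity across replicate spots of either probe orientation.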
For “ATAAATATATTTAAATGTACATAATATATATATATA [XGTACX_site5137]”, the “gcPBM binding intensity (ln)” value was 8.76 ± 0.38.
For “GTAAAAAAATTAAAAATTAACAAGGAATTAAGTATA [CACACA_negctrl_site1688]”, the “gcPBM binding intensity (ln)” value was 8.59 ± 0.56.
“GGAACTTATTTTTATACACACATATGTGCATATTAT [CACACA_site629]” was tested, and the “gcPBM binding intensity (ln)” value was 9.38 ± 0.47.
For “TATACATATATATACACACACACATATATATATATA [CACACA_site1299]”, the “gcPBM binding intensity (ln)” value was 9.9 ± 0.42.
In the case of “AGGAAACAAGAAATGAAGAATCATGTAGAAGGCCCA [GTGCAC_negctrl_site187]”, the “gcPBM binding intensity (ln)” value is reported as 8.82 ± 0.5.
“TATATAACCGAGTGCACACACAAAAAAAAAGTGAAC [CACACA_site6806]” was tested, and the “gcPBM binding intensity (ln)” value was 9.51 ± 0.45.
In the case of “AATAATATAAATATTACACACTAATTGTATTATAGA [CACACA_site6347]”, the “gcPBM binding intensity (ln)” value is reported as 8.72 ± 0.4.
In the case of “TATTAAATATTGTATACATGCAAATACTAGAAAATT [TGCATGCA_site370]”, the “gcPBM binding intensity (ln)” value is reported as 8.76 ± 0.3.
For “TAAATTAAAAAAAATACACACACACCGACACATATA [CACACA_site9084]”, the “gcPBM binding intensity (ln)” value was 9.84 ± 0.26.
“TTCGTAACTGATTCAACACACAAAAGGGGGAAAATT [CACACA_site1754]” was tested, and the “gcPBM binding intensity (ln)” value was 9.06 ± 0.11.
For “AAAAAGAAGAATAATACACACAAATTACTTTATATA [CACACA_site6984]”, the “gcPBM binding intensity (ln)” value was 8.91 ± 0.48.
“ATATTATAGAAATATACACACATTGTTTTATAGCAT [CACACA_site7177]” was tested, and the “gcPBM binding intensity (ln)” value was 9.01 ± 0.37.
In the case of “AATTACAAATATTCATGTACATATTTATAAATACAT [XGTACX_site5430]”, the “gcPBM binding intensity (ln)” value is reported as 8.8 ± 0.35.
In the case of “ATATATATATATATGTGTACATATATTAAGATATAT [XGTACX_site1065]”, the “gcPBM binding intensity (ln)” value is reported as 9.35 ± 0.057.
For “TATGTTATATAATATTGTACACAAAATGGTTTCTAT [XGTACX_site7686]”, the “gcPBM binding intensity (ln)” value was 8.75 ± 0.37.
“ATGATGTGCTTTAAAAGTACTTAAGTTATATTCTTT [XGTACX_site7127]” was tested, and the “gcPBM binding intensity (ln)” value was 8.7 ± 0.39.
With “AAAATTAAAATTTTCACACAGATATATTTACAATTT [CACACA_site5692]” the “gcPBM binding intensity (ln)” value was 8.62 ± 0.45.
In the case of “ATAACACAAAATTGTTGTACACGTGTTAATAAGTGA [XGTACX_site4452]”, the “gcPBM binding intensity (ln)” value is reported as 9.1 ± 0.42.
With “ATATATATGAAACACACACACAAAAAAAAAAAAAAA [CACACA_site3647]” the “gcPBM binding intensity (ln)” value was 9.45 ± 0.57.
With “TAAAGTTATGCAATAACACACATATACAATACATAT [CACACA_site6698]” the “gcPBM binding intensity (ln)” value was 9.12 ± 0.32.
For “AATATTTATATAAATGCATGCTGATACAACAGTCTT [TGCATGCA_site21]”, the “gcPBM binding intensity (ln)” value was 8.84 ± 0.34.
With “AGGTATGTCTATAAATGTACATATGAGTTCAATTTC [XGTACX_site2244]” the “gcPBM binding intensity (ln)” value was 8.75 ± 0.35.
In the case of “CACAGTGATATAAAAACACACATGAATTCTAATTTC [CACACA_site6884]”, the “gcPBM binding intensity (ln)” value is reported as 8.96 ± 0.48.
With “CATAAAAATATTAATAAACACACAATCAGATATTGA [CACACA_site9032]” the “gcPBM binding intensity (ln)” value was 8.87 ± 0.45.
With “AAATATATATAAACAAGTACATATTTAAAAAAAGGA [XGTACX_site2631]” the “gcPBM binding intensity (ln)” value was 8.86 ± 0.42.
“ATAAATATATATTTACGTACATATTATATATATATA [XGTACX_site6172]” was tested, and the “gcPBM binding intensity (ln)” value was 8.89 ± 0.28.
“AAAAAAATTTCACATTGTACTTTAATAATATACTAC [XGTACX_site7264]” was tested, and the “gcPBM binding intensity (ln)” value was 8.59 ± 0.42.
For “ACATATAAATTGTGTACACATATATATATATTTTTT [CACACA_site5946]”, the “gcPBM binding intensity (ln)” value was 8.94 ± 0.36.
For “GAATGCATGTAAATATGTACATATATTTAAAAATTT [XGTACX_site6032]”, the “gcPBM binding intensity (ln)” value was 8.91 ± 0.43.
For “TGTTAAAAGGTTAAATTAAAATAACCTCCGGAAATT [GTGCAC_negctrl_site236]”, the “gcPBM binding intensity (ln)” value was 8.4 ± 0.4.
In the case of “TTTATATGTATACAAACATATAAATATAAATGTATT [TGCATGCA_negctrl_site346]”, the “gcPBM binding intensity (ln)” value is reported as 8.55 ± 0.34.
In the case of “TGTTCTATGATTTGTACACACTTTTTTTTAAAATGC [CACACA_site5558]”, the “gcPBM binding intensity (ln)” value is reported as 9.03 ± 0.47.
“TATATATACATATACACACACACACCGATATATATA [CACACA_site8706]” was tested, and the “gcPBM binding intensity (ln)” value was 9.9 ± 0.29.
For “GTTTTGTACATATTCTCACACATATAAAAATACCCA [CACACA_site4446]”, the “gcPBM binding intensity (ln)” value was 8.77 ± 0.42.
With “TTCATAATAAAAAGGTGTACATATATATATATATAT [XGTACX_site2829]” the “gcPBM binding intensity (ln)” value was 9.74 ± 0.3.
For “AAGCATTTAATGTTTTATATAACATGTATTTTTTAT [CACACA_negctrl_site673]”, the “gcPBM binding intensity (ln)” value was 8.72 ± 0.39.
For “TATCGAGCCATTTTTACATGCAATTATACATAATTT [TGCATGCA_site987]”, the “gcPBM binding intensity (ln)” value was 8.88 ± 0.36.
With “CATGTATACTATAATACACACTATAAAATATACACC [CACACA_site7121]” the “gcPBM binding intensity (ln)” value was 9.12 ± 0.35.
In the case of “TTCAAATAATTTAAATGTACGTTGCTTTATTAAAAG [XGTACX_site3674]”, the “gcPBM binding intensity (ln)” value is reported as 8.24 ± 0.36.
In the case of “TAAAATGAATATAGGTGTACTTAAAAAAAAGTAAAA [XGTACX_site4613]”, the “gcPBM binding intensity (ln)” value is reported as 8.56 ± 0.62.
“TAAATTCTTTATAATCGTACATAAATAGAAAAATAA [XGTACX_site601]” was tested, and the “gcPBM binding intensity (ln)” value was 8.32 ± 0.44.
In the case of “TAAAAGAAATAATATACACACATATATAAAAATAAA [CACACA_site1329]”, the “gcPBM binding intensity (ln)” value is reported as 8.94 ± 0.41.
In the case of “CTTACTTACTTACTCACACACATATACAAAGAAAAA [CACACA_site3347]”, the “gcPBM binding intensity (ln)” value is reported as 9.1 ± 0.35.
With “AAATATATGTTATATGTGCACTTTTTTTTTTTTTTT [GTGCAC_site9667]” the “gcPBM binding intensity (ln)” value was 8.76 ± 0.48.
“TTTTACTAAATATATACACACATTATACATATATAT [CACACA_site9081]” was tested, and the “gcPBM binding intensity (ln)” value was 9.2 ± 0.46.
“ATAAATAATAAAAAATGTACACATATAAATATAAAG [XGTACX_site727]” was tested, and the “gcPBM binding intensity (ln)” value was 8.98 ± 0.53.
With “ATGATGAAAATAGAAATACACACTAAAAAATAAAAT [CACACA_site1136]” the “gcPBM binding intensity (ln)” value was 9.1 ± 0.38.
In the case of “AAAACATGTTCAACATGTACACAACAGGATGAATAT [XGTACX_site506]”, the “gcPBM binding intensity (ln)” value is reported as 9.21 ± 0.42.
For “ATATTTTTTAGGGTCACACATACTTATTATATAAAT [CACACA_site4926]”, the “gcPBM binding intensity (ln)” value was 8.74 ± 0.42.
With “AATATTTAACACCTTATACACACTTTCTTCCTTTTT [CACACA_site785]” the “gcPBM binding intensity (ln)” value was 9.13 ± 0.6.
“ATGATATGGATAAATACACACAATATAATAATGTCT [CACACA_site1433]” was tested, and the “gcPBM binding intensity (ln)” value was 9.22 ± 0.28.
For “CATATATACTCATACACACACACACCGACACAGACA [CACACA_site5026]”, the “gcPBM binding intensity (ln)” value was 9.84 ± 0.17.
In the case of “TATGATGAGATAACAAAAGTTGTACTTTTTTTTTTT [CACACA_negctrl_site1172]”, the “gcPBM binding intensity (ln)” value is reported as 8.37 ± 0.45.
With “AAACGTGCGTATATGTGTACGCATATATATATATAT [XGTACX_site5252]” the “gcPBM binding intensity (ln)” value was 10.2 ± 0.34.
“TTTATTAATTAAACCATACACACATAATTTTTTTAT [CACACA_site842]” was tested, and the “gcPBM binding intensity (ln)” value was 8.86 ± 0.51.
“AAAATTAATAAATGAGAAAAAAGGATGAATAATGAG [CACACA_negctrl_site1614]” was tested, and the “gcPBM binding intensity (ln)” value was 8.79 ± 0.49.
